Measured values published in PubChem BioAssay AID1745853 (National Center for Advancing Translational Sciences (NCATS), 2022).
Several values for one entry are separate records, joined by “and”; a condition that tells them apart may be missing. Identical values can stand only once. This is one part of the list. Further columns of the screen follow, without active or inactive calls.

Key:
Assay in all cases: Primary Screen for Target Class Profiling of Small Molecule Inhibitors of Methyltransferases
[1] = molecular target: Glycine N-methyltransferase (Homo sapiens) (UniProt Q14749); details: purified enzyme, MTase-Glo SAH luminescence; measured here: GNMT inhibition; at 40 µM; stronger effect = lower value
How it was run: (§1)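 Each enzyme was assayed with SAM and its substrate. SAH formation detected by MTase-Glo luminescence; single-point 40 uM screen[…].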

[2] = molecular target: Guanidinoacetate N-methyltransferase (Homo sapiens) (UniProt Q14353); details: purified enzyme, MTase-Glo SAH luminescence; measured here: GAMT inhibition; at 40 µM; stronger effect = lower value
How it was run: as §1

[3] = molecular target: Histamine N-methyltransferase (Homo sapiens) (UniProt P50135); details: purified enzyme, MTase-Glo SAH luminescence; measured here: HNMT inhibition; at 40 µM; stronger effect = lower value
How it was run: as §1

[4] = molecular target: Nicotinamide N-methyltransferase (Homo sapiens) (UniProt P40261); details: purified enzyme, MTase-Glo SAH luminescence; measured here: NNMT inhibition; at 40 µM; stronger effect = lower value
How it was run: as §1

[5] = molecular target: Phenylethanolamine N-methyltransferase (Homo sapiens) (UniProt P11086); details: purified enzyme, MTase-Glo SAH luminescence; measured here: PNMT inhibition; at 40 µM; stronger effect = lower value
How it was run: as §1
On the % scale 0 is the no-effect control and ±100 the full control effect.

| Compound | activity change, negative = inhibition [1] | activity change, negative = inhibition [2] [%] | activity change, negative = inhibition [3] | activity change, negative = inhibition [4] [%] | activity change, negative = inhibition [5] [%] |
| --- | --- | --- | --- | --- | --- |
| Cc1nnc([C@@H]2CC(F)(F)CN2C(=O)c2conc2C)o1 | 1.59% | 0.93 | 3.75% | -0.808 | -0.15 |
| CCOc1ccc(CN2C(=O)c3cc4sccc4n3CC2(C)C(=O)NC2CCC(C)CC2)cc1 (centres undefined) | 0.573% | -4.79 | 1.03% | -3.14 | -5.46 |
| O=C(NCc1ccccc1)c1ccc2c(=O)nc3c(-c4cccc(F)c4)n[nH]n3c2c1 | -7.22% | 1.59 | -5.19% | -13.6 | -7.83 |
| Cn1ccnc1CN1CCN(c2nccc(-c3cccnc3)n2)CC1 | -5.42% | -2.83 | -1.3% | -2.13 | -0.952 |
| CC#C[C@@H](CC(=O)O)c1ccc(OCc2cccc(-c3ccc(C(F)(F)F)cc3)c2)cc1 | -20.7% | -1.27 | -2.47% | -52.6 | -0.168 |
| CCOC(=O)c1cc2n(n1)CC(C)(C(=O)NC1CCCCCC1)N(Cc1ccc(Cl)cc1)C2=O (centres undefined) | 4.77% | 0 | -3.04% | 1.31 | 5.12 |
| CN1CCc2cc(Cl)c(O)cc2[C@@H](c2ccccc2)C1 | -2.23% | 7.24 | -11.9% | -3.18 | 7.39 |
| CC(C)NC(=O)c1ccc2c(=O)n(C(C)C)c3nn(Cc4ccccc4Cl)c(=O)n3c2c1 | 3.05% | 1.17 | 5.26% | 2.72 | 2.78 |
| OC[C@H]1O[C@@H](OC(CCCCc2ccc(O)cc2)CCc2ccc(O)cc2)[C@H](O)[C@@H](O)[C@@H]1O (some centres undefined) | 0% | -2.91 | 3.3% | -16.2 | -11.5 |
| Nc1ccc(N2C(=O)c3ccccc3C2=O)c(Cl)c1 | -12.6% | 0.682 | -1.08% | -8.93 | 0.225 |
| Fc1cc(F)cc(Cc2nc3nccc(-c4cccnc4)n3n2)c1 | -4.28% | 0.207 | -0.57% | -5.93 | -1.03 |
| CCn1ccc(C(=O)N2CCCC(CO)CCNC(=O)CC2)n1 (centres undefined) | 0.374% | 1.3 | -2.46% | -0.942 | 0.394 |
| COc1cc(OC)cc(C(=O)N[C@@H]2COCC[C@@H]2Oc2cccc(F)c2)c1 | -1.6% | -1.23 | 0.46% | -7.69 | -17.1 |
| CC(C)NC(=O)c1ccc2c(=O)n(C(C)C)c3nn(CC(=O)NC4CCCC4)c(=O)n3c2c1 | 6.02% | 0.162 | 6.95% | 2.51 | 5.1 |
| C=Cc1ccc(Cn2nc3n(CC(C)C)c(=O)c4ccc(C(=O)NC5CCCCC5)cc4n3c2=O)cc1 | -4.5% | 0.662 | 1.13% | -0.022 | 3.89 |
| CCOC(=O)C1CCN(c2nc3c(S(=O)(=O)c4ccccc4)nnn3c3ccc(Cl)cc23)CC1 | 0.409% | 2.87 | 0.81% | -0.509 | -0.61 |

| Compound | activity change, negative = inhibition [1] | activity change, negative = inhibition [2] [%] | activity change, negative = inhibition [3] | activity change, negative = inhibition [4] [%] | activity change, negative = inhibition [5] [%] |
| --- | --- | --- | --- | --- | --- |
| COc1cc2c(cc1-c1c(C)noc1C)ncc1[nH]c(=O)n(C(C)c3ccccn3)c12 (centres undefined) | -48.4% and -82.9% |  | 6.67% and 2.14% | -24.2 | 3.92 |
| COc1ccc(CNC(=O)Cn2nc3n(Cc4ccccc4)c(=O)c4ccccc4n3c2=O)cc1 | 0.679% | 4.59 | -1.82% | 0.027 | 1.86 |
| CC1(C(=O)NC2CCCCC2)Cn2c(cc3sccc32)C(=O)N1Cc1cccc(Cl)c1 (centres undefined) | -2.64% | 1.88 | 1.67% | -4.33 | -3.71 |
| O=S(=O)(NCc1ccc(Cl)cc1)c1ccc2[nH]c3c(c2c1)CCCC3 | -3.3% | 0 | 3.04% | -0.474 | -0.993 |
| CCOC(=O)c1cccc(NS(=O)(=O)c2ccc3[nH]c4c(c3c2)CCCC4)c1 | -10.1% | -1.69 | -1.97% | -8.68 | -1.97 |
| CC(C)(C)c1nc(C(=O)NCc2cccnc2)n2ccccc12 | -10.7% | -1.05 | -4.58% | -11.6 | -5.42 |
| CN1C(=O)c2cc(C(=O)NCCc3cccs3)nn2CC1(C)C(=O)NC1CCCCC1 (centres undefined) | -3.18% | -0.906 | -5.34% | 1.21 | -4.21 |
| COC(=O)c1cc(Br)cnc1N1CCC(NC2CCCCC2)C(O)C1 (centres undefined) | 1.57% | 1.32 | 10.3% | -7.55 | 2.83 |
| COc1ccc(N2C(=O)CSc3c(c4ccccc4n3C)C2C(=O)NCc2ccc(F)cc2)cc1OC (centres undefined) | -9.18% | 0 | -1.66% | 1.87 | 2.84 |
| CCC1(O)CCC12CCN(C(=O)c1ccco1)CC2 (centres undefined) | -1.59% | -2.34 | -1.97% | -4.7 | -6.84 |
| COc1cccc(-c2nnc3n(CCc4ccccc4)c(=O)c4ccccc4n23)c1OC | -2.45% | 0 | 1.25% | 1.57 | -2.16 |
| CC1(C)[C@H](C(=O)O)N2C(=O)C[C@H]2S1(=O)=O | 5.97% | 6.72 | 8.79% | -1.68 | 7.49 |
| Cc1ccc(Cn2nc3n(CC(C)C)c(=O)c4ccccc4n3c2=O)cc1 | 3.53% | 1.95 | 9.73% | -9.61 | 5.78 |
| COc1ccc(NC(=O)Cn2c(=O)oc3cc(S(=O)(=O)N4CC(C)CC(C)C4)ccc32)cc1 (centres undefined) | 16% | 4.29 | 13.9% | 8.9 | -4.82 |
| CC(=O)c1[nH]cc(CCC(=O)O)c1CC(=O)O | 3.41% | 6.38 | 4.56% | -5.72 | 2.27 |
